{"source": "the supplement of paper PMC9446081", "note": "Out of some 39,000 compounds screened, about 220 (0.56%) showed activity. This is one part of the list.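 Further: static incubation at 37 °C against the wild-type strain, values averaged over two biological replicates.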", "data": [{"test_system": "Escherichia coli K-12 BW25113", "assay": "relative growth (OD600 normalised to plate interquartile mean) (fraction); higher = less growth inhibition, active = 0.2 or less", "conditions": "50 µM; LB; incubation time: overnight (16-24 h)", "values": [{"compound": "C[C@H]1CN([C@@H](C)CO)C(=O)c2ccccc2-c2ccccc2CO[C@H]1CN(C)Cc1ccccc1C(F)(F)F", "relative growth": "inactive: 1.03"}, {"compound": "C[C@H](CO)N1C[C@H](C)[C@H](CN(C)S(C)(=O)=O)Oc2ccc(NC(=O)Cn3cnnn3)cc2CC1=O", "relative growth": "inactive: 0.991"}, {"compound": "CCNC(=O)[C@@H]1CCCN1C(=O)[C@H](CCCNC(=N)N)NC(=O)[C@H](CC(C)C)NC(=O)[C@@H](COC(C)(C)C)NC(=O)[C@H](Cc1ccc(O)cc1)NC(=O)[C@H](CO)NC(=O)[C@H](Cc1c[nH]c2ccccc12)NC(=O)[C@H](Cc1cnc[nH]1)NC(=O)[C@H]1CCC(=O)N1", "relative growth": "inactive: 1"}, {"compound": "Cc1noc(C)c1NC(=O)Nc1ccc2c(c1)CC(=O)N([C@H](C)CO)C[C@H](C)[C@H](CN(C)S(=O)(=O)c1cccs1)O2", "relative growth": "inactive: 1.02"}, {"compound": "Cc1cc(C(=O)Nc2cccc3c2O[C@@H](CN(C)Cc2ccc(Oc4ccccc4)cc2)[C@H](C)CN([C@@H](C)CO)C3=O)n(C)n1", "relative growth": "inactive: 0.98"}, {"compound": "Cc1ccc(C#N)c(SCC(N)=O)n1", "relative growth": "inactive: 1"}, {"compound": "C[C@@H]1CN([C@H](C)CO)C(=O)CCCn2nncc2CO[C@H]1CN(C)C(=O)Nc1ccc2c(c1)OCO2", "relative growth": "inactive: 0.975"}, {"compound": "Cc1ccc(S(=O)(=O)N(C)C[C@H]2Oc3ccc(NS(=O)(=O)c4ccc(F)cc4)cc3C(=O)N([C@@H](C)CO)C[C@H]2C)cc1", "relative growth": "inactive: 0.994"}, {"compound": "COc1ccc(CN(C)C[C@H]2Oc3ccc(NS(=O)(=O)c4cn(C)cn4)cc3CC(=O)N([C@@H](C)CO)C[C@@H]2C)cc1", "relative growth": "inactive: 0.964"}, {"compound": "CC(=O)[C@@H](OC(=O)CS(C)(=O)=O)C(=O)NCc1ccccc1", "relative growth": "inactive: 0.885"}, {"compound": "CCC[C@H]1CCCCCCCCCC(=O)O[C@@H]2[C@@H](O1)O[C@H](C)[C@H](O)[C@@H]2O[C@H]1O[C@@H](CO)[C@@H](O[C@@H]2O[C@@H](C)[C@H](O)[C@@H](O)[C@H]2OC(=O)[C@@H](C)CC)[C@@H](O)[C@@H]1O", "relative growth": "inactive: 0.974"}, {"compound": "C[C@H](CO)N1C[C@H](C)[C@@H](CN(C)S(=O)(=O)c2cn(C)cn2)Oc2ccc(NS(=O)(=O)c3cn(C)cn3)cc2C1=O", "relative growth": "inactive: 0.954"}, {"compound": "C[C@@H]1CCCCO[C@H](CN(C)Cc2ccc(C(F)(F)F)cc2)[C@H](C)CN([C@@H](C)CO)C(=O)c2cc(NC(=O)Cc3ccccc3)ccc2O1", "relative growth": "inactive: 1.04"}, {"compound": "Cn1cnc(S(=O)(=O)N2C[C@H](O)COC[C@@H]3O[C@H](CC(=O)NCc4ccc(F)cc4)CC[C@H]32)c1", "relative growth": "inactive: 0.997"}, {"compound": "CC(C)NC(=O)N(C)C[C@H]1Oc2ccc(NC(=O)Cc3ccccc3)cc2CC(=O)N([C@H](C)CO)C[C@@H]1C", "relative growth": "inactive: 0.99"}, {"compound": "N#Cc1c(N)nc(SCc2csc(-c3ccc(Cl)cc3)n2)c(C#N)c1-c1ccc(OCCO)cc1", "relative growth": "inactive: 0.996"}, {"compound": "O=C(NCCN1CCOCC1)c1cccs1", "relative growth": "inactive: 1.04"}, {"compound": "CCC(=O)N1CCN(c2ccc(-n3c(=O)ccc4cnc5ccc(-c6cnc7ccccc7c6)cc5c43)cc2C(F)(F)F)CC1", "relative growth": "inactive: 0.99"}, {"compound": "O=C(C1=C[C@H](c2ccc(Br)cc2)C[C@H](OCc2ccc(CO)cc2)O1)N1CCN(Cc2ccccc2)CC1", "relative growth": "inactive: 1.01"}, {"compound": "COc1ccc(S(=O)(=O)Nc2ccc3c(c2)C(=O)N([C@@H](C)CO)C[C@H](C)[C@H](CN(C)S(=O)(=O)c2cn(C)cn2)O3)cc1", "relative growth": "inactive: 1.01"}, {"compound": "CO[C@@H]1CN(C)C(=O)c2cc(NC(=O)C3CCCCC3)ccc2OC[C@@H](C)N(C(=O)Nc2ccc(C(F)(F)F)cc2)C[C@H]1C", "relative growth": "inactive: 0.976"}, {"compound": "CCOc1nc(N)cc(N)c1C#N", "relative growth": "inactive: 0.908"}, {"compound": "COc1ccc(NC(=O)N(C)C[C@@H]2Oc3ccc(NS(C)(=O)=O)cc3CC(=O)N([C@@H](C)CO)C[C@@H]2C)cc1", "relative growth": "inactive: 1.02"}, {"compound": "C[C@@H](O)C#Cc1ccc2c(c1)O[C@@H](CN(C)C(=O)CN(C)C)[C@@H](C)CN([C@@H](C)CO)S2(=O)=O", "relative growth": "inactive: 0.966"}, {"compound": "C[C@H](CO)N1C[C@H](C)[C@H](CN(C)C(=O)Nc2cccc3ccccc23)Oc2ncc(C#Cc3ccc(F)cc3)cc2C1=O", "relative growth": "inactive: 0.982"}, {"compound": "O=C(N[C@@H]1C=C[C@H](CC(=O)N2CCOCC2)O[C@H]1CO)c1ccccn1", "relative growth": "inactive: 1"}, {"compound": "COc1ccc([C@H]2CC=CC[C@H](C)Oc3ccccc3C(=O)N(C)[C@H](Cc3ccccc3)C(=O)N2)c(OC)c1", "relative growth": "inactive: 1.01"}, {"compound": "CO[C@H]1CN(C)C(=O)c2cc(NS(=O)(=O)c3ccccc3)ccc2OC[C@@H](C)N(C(=O)NC(C)C)C[C@H]1C", "relative growth": "inactive: 0.984"}, {"compound": "C[C@@H]1CCCCO[C@@H](CN(C)C(=O)c2ccccc2)[C@H](C)CN([C@@H](C)CO)C(=O)c2cc(NC(=O)Nc3ccc4c(c3)OCO4)ccc2O1", "relative growth": "inactive: 1.01"}, {"compound": "COC(=O)c1cc(-c2ccccc2)oc1CN", "relative growth": "inactive: 1.02"}, {"compound": "Cc1noc(C)c1S(=O)(=O)Nc1ccc2c(c1)C(=O)N([C@H](C)CO)C[C@@H](C)[C@H](CN(C)C(=O)NC(C)C)O2", "relative growth": "inactive: 0.962"}, {"compound": "C[C@H](CO)N1C[C@H](C)[C@H](CN(C)Cc2ccc(C(=O)Nc3ccccc3N)cc2)Oc2ccc(NC(=O)Cc3cn(C)c4ccccc34)cc2C1=O", "relative growth": "inactive: 0.993"}, {"compound": "C[C@H](CO)N1C[C@H](C)[C@H](CN(C)S(C)(=O)=O)Oc2ccc(NS(C)(=O)=O)cc2C1=O", "relative growth": "inactive: 0.986"}, {"compound": "C[C@]1(O)CC[C@@H]2C(C(=O)O)=CO[C@@H](O[C@@H]3O[C@H](COC(=O)/C=C/c4ccc(O)c(O)c4)[C@@H](O)[C@H](O)[C@H]3O)[C@@H]21", "relative growth": "inactive: 1.02"}, {"compound": "C=CCN1C(=O)[C@]2(O[C@H](CCO)[C@@H]([Si](C)(C)c3ccc(OC)cc3)[C@@H]2C)c2cc(N3C(=O)c4cccc5cccc3c45)ccc21", "relative growth": "inactive: 1.03"}, {"compound": "C[C@@H]1CN([C@@H](C)CO)C(=O)c2cccc(NC(=O)C3CCOCC3)c2O[C@H]1CN(C)S(=O)(=O)c1cn(C)cn1", "relative growth": "inactive: 1.01"}, {"compound": "C=CCOC(=O)[C@H]1[C@@H]2C(=O)O[C@@H](c3ccccc3)[C@@H](c3ccccc3)N2[C@@H](c2ccc(OCCOC(=O)[C@H]3C[C@H]4C(=O)N5CCC[C@H]5C(=O)N4[C@H]3c3cccc(OCCO)c3)cc2)[C@]12C(=O)Nc1ccc(I)cc12", "relative growth": "inactive: 1.01"}]}]}
